From the supplement of paper PMC8183993 come the findings set out here.

Several values for one entry are separate records, joined by “and”; a condition that tells them apart may be missing. Equal values may be shown once. Where a name gives a salt, the structure may show the parent alone. ± gives the standard deviation of the averaged measurements. In all, about 3,100 compounds were measured (“mean cytoplasmic OPP incorporation (global translation) relative to DMSO”: median about 100, lowest 2% from about 56 on). The list shows a part of the results.

The subject of this assay is U2OS. Nature of the assay: mean cytoplasmic OPP incorporation (global translation) relative to DMSO (% of DMSO); higher = more protein synthesis. To be noted: 10 µM; 24 h. As for the experimental part: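 Primary image-based screen in U2OS cells: compounds at 10 uM for 24 h, then a 1 h o-propargyl-puromycin (OPP) pulse, click labelling, and high-throughput microscopy. Mean cytoplasmic OPP intensity and nuclei count were normalised to DMSO wells within each plate (DMSO = 100) and averaged over triplicate plates.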
Take `Cc1cc(F)c(Nc2ncnc3cc(OCc4ccccc4)ccc23)cc1O`: the “mean cytoplasmic OPP incorporation” value is 104 and 96.3.

For `COc1ccc2c3c1O[C@H]1C[C@@H](O)C=C[C@@]31CCN(C)C2` [Galanthamine hydrobromide], the “mean cytoplasmic OPP incorporation” value was determined as 102 ± 7.8.

As for `CC(C)n1cnc2c(NCCc3ccc(O)cc3)nc(-c3csc4ccccc34)nc21` [StemRegenin 1], the “mean cytoplasmic OPP incorporation” value was determined as 106.

As to `CC(C)NC(=N)NC(=N)Nc1ccc(Cl)cc1` [Proguanil hydrochloride], the “mean cytoplasmic OPP incorporation” value is 97.3.

Take `Cc1nc2c(O)cccc2c(=O)[nH]1`: the “mean cytoplasmic OPP incorporation” value is 100.

On to `CCNC(=O)c1cc2c(-c3cc(OCCN4CCCC4)c(Cl)cc3Cl)nc(N)nc2s1`, for which the “mean cytoplasmic OPP incorporation” value turned out to be 95.3.

In the case of `c1cc(CN2CCCNCCNCCCNCC2)ccc1CN1CCCNCCNCCCNCC1` [Plerixafor 8HCl (AMD3100 8HCl)], the “mean cytoplasmic OPP incorporation” value came to 102.

On to `CCCCc1nc2ccn(Cc3cccs3)c(=O)c2n1Cc1ccc(-c2ccccc2-c2nn[nH]n2)cc1`, for which the “mean cytoplasmic OPP incorporation” value was 104.

With `CN(Cc1ccc(C(C)(C)C)cc1)Cc1cccc2ccccc12` [Butenafine Hydrochloride], the “mean cytoplasmic OPP incorporation” value worked out at 114.

`O=C(NCCCNc1nc(Nc2cccc(NC(=O)N3CCCC3)c2)ncc1I)c1cccs1`: the “mean cytoplasmic OPP incorporation” value is 88.3 ± 4.3.

For the molecule `N=C(CC(O)COc1ccccc1-c1ccccc1)N1CCCCC1` (stereo not given), the “mean cytoplasmic OPP incorporation” value was 102.

For the molecule `Cc1ccccc1C(=O)Nc1ccc(C(=O)N2CCCC(N(C)C)c3ccccc32)cc1` (stereo not given) [Mozavaptan], the “mean cytoplasmic OPP incorporation” value amounted to 96.6.

Turning to `CCCOc1ccc(Br)cc1-c1cc(-c2ccc(Cl)cc2)[nH]c1-c1ccncc1`, the “mean cytoplasmic OPP incorporation” value was found to be 100.

Turning to `C=C[C@@](C)(/C=C/c1ccc(O)cc1)CCC=C(C)C` [Bakuchiol], the “mean cytoplasmic OPP incorporation” value was determined as 113.

Take `NS(=O)(=O)c1ccc(NC(=O)Nc2ccc(F)cc2)cc1`: the “mean cytoplasmic OPP incorporation” value worked out at 98.7.

For the molecule `CC(=O)CC(c1ccc([N+](=O)[O-])cc1)c1c(O)c2ccccc2oc1=O` (stereo not given) [Acenocoumarol], the “mean cytoplasmic OPP incorporation” value is 96.8.

On to `CCCCCCCCNC(C)C(O)c1ccc(SC(C)C)cc1` (stereo not given) [Suloctidil], for which the “mean cytoplasmic OPP incorporation” value turned out to be 103.

Consider `S=c1[nH]cnc2nc[nH]c12` [Mercaptopurine], for which the “mean cytoplasmic OPP incorporation” value was 75.8 ± 4.5.

As for `O=C(Nc1ccccc1)N[C@@H]1C[C@@H](C(=O)O)Nc2cc(Cl)cc(Cl)c21`, the “mean cytoplasmic OPP incorporation” value was 105.

Regarding `Cc1ccc(Sc2ccccc2N2CCNCC2)c(C)c1`, the “mean cytoplasmic OPP incorporation” value amounted to 114.

In the case of `CN1CCC(CNc2ccc3ncc(-c4cccc(OC(F)(F)F)c4)n3n2)CC1` [SGI-1776 free base], the “mean cytoplasmic OPP incorporation” value stood at 110 ± 2.

On to `NCC(=O)CCC(=O)O` [5-Aminolevulinic acid HCl], for which the “mean cytoplasmic OPP incorporation” value worked out at 102.

On to `CC(C)[C@H](NS(=O)(=O)c1ccc(-c2ccc(Br)cc2)cc1)C(=O)O`, for which the “mean cytoplasmic OPP incorporation” value stood at 98.7.

For `CNCCC=C1c2ccccc2C=Cc2ccccc21` [Norcyclobenzaprine], the “mean cytoplasmic OPP incorporation” value worked out at 97.5.

Take `NC(=O)c1ccc[n+]([C@@H]2O[C@H](COP(=O)([O-])OP(=O)(O)OC[C@H]3O[C@@H](n4cnc5c(N)ncnc54)[C@H](O)[C@@H]3O)[C@@H](O)[C@H]2O)c1` [Nadide]: the “mean cytoplasmic OPP incorporation” value came to 94.5.
